# PubChem BioAssay AID504706 (National Center for Advancing Translational Sciences (NCATS), 2011)
# Hit rate of the full screen: of about 320,000 compounds, about 200 (0.062%) were called active. Inconclusive results, whose numbers are uncertain, are shown with a selection of clear calls. The call rests on the fitted dose curve; in most records, active means well fitted activation curve with a large enough effect; inconclusive means small, poorly fitted or top-dose-only effect; inactive means no such curve, though single readings can be large or run the other way. No potency is given beside an inconclusive call; the fits are too rough.
# Experiment: qHTS assay for re-activators of p53 using a Luc reporter; further: nearly all actives have a fitted effect of over 45% in size; on activity change, positive = activation: % of control where 0% means no effect
# Conditions: H1299 p53-A138V BP100-luciferase reporter, luminescence, 24 h; series mostly up to 92.2 µM; activity change, positive = activation: at the top concentration
# Procedure, shortened: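 H1299 (p53-null), stable ts p53-A138V + BP100-Luc; 1000 cells/well, Opti-MEM/10% FBS; cpd 4 pt, 1:5; 24 h, 37 deg C, 5% CO2; detection reagent 10 min RT; luminescence.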
# Potency means the concentration at half of the fitted maximal effect; tags describe the fitted curve by direction and shape.
Structure (SMILES),Potency,"activity change, positive = activation"
Cc1cc(-c2nnc(-c3cc4ccccc4oc3=O)o2)c(C)n1-c1ccccc1,"inconclusive [activator, single point]",
O=C(NN=C1C2CC3CC1CC(Cl)(C3)C2)c1ccccn1,"inconclusive [activator, partial curve, poor fit]",
O=C(c1ccc(CSc2nc3ccncc3[nH]2)cc1)N1CCCCCC1,"inconclusive [activator, partial curve, poor fit]",
O=C(CC1C(=O)CCCC1=O)c1ccccc1,"inconclusive [activator, single point]",
Cc1ccc(NC(=O)C(=O)N2CCCC2)cc1Cl,"inconclusive [activator, partial curve, poor fit]",
COc1ccc(C(=O)C2CCCN(Cc3ccc4nonc4c3)C2)c(OC)c1 (centres undefined),,inactive: -1.77%
Cc1csc(=O)n1CCC(=O)OCC(=O)c1c(N)n(CC(C)C)c(=O)n(C)c1=O,,inactive: 3.95%
CCc1cc(CNC(=O)c2ccc3nc(Cc4ccc(OC)c(OC)c4)oc3c2)on1,"inconclusive [activator, full curve, poor fit]",
Cc1ccc(S(=O)(=O)N2CCCCC2)cc1NC(=O)c1ccc2ccccc2n1,"inconclusive [activator, partial curve, poor fit]",
O=C(O)C1C2C=CC(C3CC23)C1C(=O)NCCc1ccccc1 (centres undefined),"inconclusive [activator, single point]",
COc1ccc(Cc2nc3ccc(C(=O)N(C)CCn4ccnc4)cc3o2)cc1OC,"inconclusive [activator, partial curve, poor fit]",
Nc1nonc1-c1noc(COc2ccccc2Cl)n1,"inconclusive [activator, partial curve, poor fit]",
COc1cccc(C(=O)Nc2nnc(C3CCCO3)s2)c1 (centres undefined),,inactive: 23.1%
CCOC(=O)c1cnc(SCCc2ccccc2)nc1N,"inconclusive [activator, partial curve, poor fit]",
O=C(Nc1nc2ccccc2n1CCOc1ccccc1)c1ccco1,,inactive: 0.663%
COc1ccc(OC)c(C=Nc2ccccc2-c2nc3ccccc3[nH]2)c1,"inconclusive [activator, full curve, poor fit]",
C=CCNC(=S)N/N=C(\C)c1ccc(OC)cc1,"inconclusive [activator, single point]",
Cc1cc(OCc2cc(C(=O)N(C)C(C)c3ccccn3)no2)cc(C)c1Cl (centres undefined),"inconclusive [activator, partial curve, poor fit]",
O=C(Nc1ccc(NC(=O)C2CC2)cn1)c1ccccc1Cl,"inconclusive [activator, single point]",
N/C(=N\OC(=O)c1ccc(Cl)c([N+](=O)[O-])c1)c1ccccn1,"inconclusive [activator, partial curve, poor fit]",
O=C(Nc1cc(=O)[nH]c(=O)[nH]1)c1cccc(C(F)(F)F)c1,,inactive: 14.4%
Cc1noc(C)c1S(=O)(=O)N(C)C[C@H]1Oc2ccc(NS(=O)(=O)c3ccccc3)cc2C(=O)N([C@H](C)CO)C[C@@H]1C,,inactive: 9.93%

Structure (SMILES),Potency,"activity change, positive = activation"
O=C(Nc1ccc(F)cc1)NC1CCN(Cc2nnnn2Cc2ccco2)CC1,,inactive: 0.266%
O=C(Cn1cc(C(=O)C2CC2)c2ccccc21)NCc1ccccc1,"inconclusive [activator, partial curve, poor fit]",
Cn1cccc1/C=N/NC(=O)c1ccn[nH]1,"inconclusive [activator, partial curve, poor fit]",
O=C(NCCc1ccc(Cl)cc1)c1ccc2ccccc2n1,,inactive: 11.5%
CCn1ncc(/C=N/NC(=O)c2ccc3c(c2)OCO3)c1C,,inactive: 7.11%
O=C(NC(=S)NCc1ccc(-c2nc3ccccc3s2)cc1)c1ccco1,"inconclusive [activator, full curve, poor fit]",
Nc1nc(-c2ccc(Br)s2)c(Br)s1,"inconclusive [activator, full curve, poor fit]",
CSc1ccc(-c2nnn(Cc3ccccn3)n2)cc1,"inconclusive [activator, full curve]",
C/C(=N\NC(=O)c1ccco1)c1ccc(-c2ccccc2)cc1,"inconclusive [activator, full curve, poor fit]",
N#C/C(=N/Nc1ccccc1F)C(=N)N1CCOCC1,,inactive: 14.6%
Cc1cc(N/N=C/c2ccccc2Br)nc2ccccc12,"inconclusive [activator, full curve, poor fit]",
O=C(O)CCc1nn2c3ccccc3n(Cc3ccccc3F)c2nc1=O,,inactive: 6.97%
COc1ccc2nc(NC(=O)CN(c3ccc(C)cc3)S(=O)(=O)c3c(C)nn(C)c3C)sc2c1,,inactive: 1.99%
Cc1ccc(Nc2nc(-c3cccnc3)cs2)cc1C,"inconclusive [activator, partial curve, poor fit]",
O=C(O)c1cnn(-c2nc(-c3ccc(F)cc3)cs2)c1C(F)(F)F,,inactive: -0.828%
O=C(O)c1ccccc1NC(=O)c1cc2ccccc2oc1=O,"inconclusive [activator, partial curve, poor fit]",
CN(C)c1ccc(/C=C2\C(=N)N3N=C(CC(=O)N4CCCCC4)SC3=NC2=O)cc1,,inactive: 15.3%
Cc1ccc(CONC(=O)c2ccc(OC(F)F)cc2)cc1,"inconclusive [activator, full curve, poor fit]",
CCSc1nnc(-c2cccs2)o1,"inconclusive [activator, partial curve, poor fit]",
O=C(OCC(=O)N1CCCCC1)c1cc2ccccc2cc1O,"inconclusive [activator, full curve, poor fit]",
COc1ccc2[nH]cc(/C=C/C(=O)c3ccccc3)c2c1,"inconclusive [activator, partial curve, poor fit]",
c1ccc(C2CCC3(CC2)Oc2ccccc2C2CC(c4cccnc4)=NN23)cc1 (centres undefined),"inconclusive [activator, single point]",
